Patent US20230272050A1, “BINDING PROTEIN SPECIFIC FOR THE SPIKE PROTEIN OF SEVERE ACUTE RESPIRATORY SYNDROME CORONA VIRUS 2 (SARS-COV-2)” (priority 2020, published 2023)

Tests used:
[1] = target: SARS-Cov2-RBD-His (Severe acute respiratory syndrome coronavirus 2)
[2] = target: RBD-His and ACE2 (Severe acute respiratory syndrome coronavirus 2); conditions: equimolar mixture incubated 1 h at RT
[3] = target: S1-His and ACE2 (Severe acute respiratory syndrome coronavirus 2); conditions: equimolar mixture incubated 1 h at RT
[4] = test system: RBD (Severe acute respiratory syndrome coronavirus 2); conditions: 0.1 M NaOH for at least 10 h at RT (equals 40 CIP cycles), coupled to Praesto Epoxy 85
[5] = test system: SARS-CoV2-RBD (Severe acute respiratory syndrome coronavirus 2)

Molecule | Elution pH at main fraction [1] | peak maximum in a pH gradient profile [1] | captured RBD eluted at pH 3.4 [1] | competitive binding, RBD and ACE2 applied at the same time [2] | competitive binding, S1 and ACE2 applied at the same time [3] | remaining RBD binding capacity [4] | purity of the eluted fraction [5] | purity of eluted RBD-His target, qualitative [1]
212895 (protein) AVLDIAQHSATEEIWWLPNLTKQQKVWFIMSLTQDPSVSKEVLGEAQKLNDSQAPKIAAQHDKIQQAADKEILHLPNLTEEQRNKFRQSLRDDPSVSAEILAEAKKLNDAQAPKIAAQHDKIQQAADKEILHLPNLTEEQRNKFRQSLRDDPSVSAEILAEAKKLNDAQAPKIAAQHDKIQQAADKEILHLPNLTEEQRNKFRQSLRDDPSVSAEILAEAKKLNDAQAPKC | 3.47 pH | 3.4 pH | 96% | – | – | – | – | –
212896 (protein) AVLDIDQHAATEEIWWLPNLTKQQKVWFIMSLTQDPSVSLEILAEAKKLNDAQAPKIAAQHDKIQQAADKEILHLPNLTEEQRNKFRQSLRDDPSVSAEILAEAKKLNDAQAPKIAAQHDKIQQAADKEILHLPNLTEEQRNKFRQSLRDDPSVSAEILAEAKKLNDAQAPKIAAQHDKIQQAADKEILHLPNLTEEQRNKFRQSLRDDPSVSAEILAEAKKLNDAQAPKC | 3.4 pH | 3.4 pH | 96% | binds to the same or an overlapping epitope | binds to the same or an overlapping epitope | 87% | at least 94% | –
213147 (protein) AKFDEAQQWAFYEILHLENLTEEQRNAFIQSLRDDPSVSREVLGEATKLNTSQAPKIAAKFDEAQLAAFQEIRHLPNLTEEQREAFITSLYDDPSVSLEVLGEAQKLNDSQAPKIAAQHDKIQQAADKEILHLPNLTEEQRNKFRQSLRDDPSVSAEILAEAKKLNDAQAPKIAAQHDKIQQAADKEILHLPNLTEEQRNKFRQSLRDDPSVSAEILAEAKKLNDAQAPK | 4.62 pH | ~4.3 pH | – | – | – | – | – | high purity
213152 (protein) AKFDEAQLAAFEEIRHLPNLTEEQREAFITSLYDDPSVSLEVLGEAQKLNDSQAPKIAAKFDEAQQAAFYEILHLPNPTEWQRNYFIQQLRDDPSVSLAVLGRAQVLNDSQAPKIAAQHDKIQQAADKEILHLPNLTEEQRNKFRQSLRDDPSVSAEILAEAKKLNDAQAPKIAAQHDKIQQAADKEILHLPNLTEEQRNKFRQSLRDDPSVSAEILAEAKKLNDAQAPK | 4.19 pH | ~3.9 pH | – | – | – | – | – | high purity
212361 (protein) IAAKFDEAQQYAFYKILHLWNLTEEQRNAFIQSLRDDPSVSLEVLGEARKLNTSQAPKIAAKFDEAQYAAFLEIVHLPNLTEEQRQAFIASLWDDPSVSLEVLGEAQKLNDSQAPK | >6.0 pH | – | – | – | – | – | – | –
212335 (protein) IAAKFDEAQQYAFYKILHLWNLTEEQRNAFIQSLRDDPSVSLEVLGEARKLNTSQAPKIAAKFDEAQYAAFLEIHHLPNLTEEQRHAFILSLYDDPSVSLEVLGEAQKLNDSQAPK | >6.0 pH | – | – | – | – | – | – | –
